Experimental data as given in publication PMC4336329 (PLoS ONE, 2015).
About 14,000 (4.5%) of roughly 310,000 compounds showed an effect of 50% or more. The effect is printed as a negative number. The list shows a part of the results.

Target: human ether-à-go-go-related gene (hERG) potassium channel (human, UniProt Q12809)
Experiment: primary screen, population patch clamp on CHO cells stably expressing hERG
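Note: peak tail current of the secondary pulse compared with the same well before compound.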

Sequence of human ether-à-go-go-related gene (hERG) potassium channel (Q12809 whole entry, looked up): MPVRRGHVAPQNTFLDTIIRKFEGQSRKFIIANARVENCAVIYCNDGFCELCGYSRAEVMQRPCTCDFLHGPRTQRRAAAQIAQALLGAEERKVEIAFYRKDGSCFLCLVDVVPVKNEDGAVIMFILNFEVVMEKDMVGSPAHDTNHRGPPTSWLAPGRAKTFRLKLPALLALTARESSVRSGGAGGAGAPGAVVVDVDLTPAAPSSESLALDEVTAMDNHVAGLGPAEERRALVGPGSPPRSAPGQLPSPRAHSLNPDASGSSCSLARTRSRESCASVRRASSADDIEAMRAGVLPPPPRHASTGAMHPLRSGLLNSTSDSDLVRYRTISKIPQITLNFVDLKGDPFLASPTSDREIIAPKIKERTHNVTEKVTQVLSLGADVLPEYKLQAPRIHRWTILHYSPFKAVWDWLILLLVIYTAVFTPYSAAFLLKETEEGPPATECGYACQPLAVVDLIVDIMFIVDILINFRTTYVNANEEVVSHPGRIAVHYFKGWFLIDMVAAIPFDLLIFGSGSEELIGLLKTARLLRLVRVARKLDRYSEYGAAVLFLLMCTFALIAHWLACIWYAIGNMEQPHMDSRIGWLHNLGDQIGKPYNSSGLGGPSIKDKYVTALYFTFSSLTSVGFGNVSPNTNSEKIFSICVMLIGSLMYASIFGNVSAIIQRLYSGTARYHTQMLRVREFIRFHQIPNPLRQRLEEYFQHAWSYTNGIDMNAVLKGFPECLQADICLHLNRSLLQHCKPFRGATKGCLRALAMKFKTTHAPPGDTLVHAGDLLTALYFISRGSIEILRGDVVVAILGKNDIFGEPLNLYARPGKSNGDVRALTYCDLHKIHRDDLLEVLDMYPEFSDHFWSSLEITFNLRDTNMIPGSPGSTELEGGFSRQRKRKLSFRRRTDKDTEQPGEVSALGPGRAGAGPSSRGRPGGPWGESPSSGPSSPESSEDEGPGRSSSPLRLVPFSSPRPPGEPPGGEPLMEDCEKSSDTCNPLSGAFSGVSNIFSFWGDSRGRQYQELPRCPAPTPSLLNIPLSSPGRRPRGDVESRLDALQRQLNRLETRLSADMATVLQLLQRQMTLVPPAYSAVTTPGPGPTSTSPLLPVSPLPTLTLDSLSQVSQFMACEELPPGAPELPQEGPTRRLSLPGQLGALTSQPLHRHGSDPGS

| SMILES | hERG current change (%, negative = inhibition) at 10uM [%] |
| --- | --- |
| COc1cccc(N(C(=O)c2csnn2)C(C(=O)NC2CCCC2)c2ccccc2)c1 (stereo not drawn) | -0.366 |
| CNC(=O)C(=O)NCCc1ccc(Cl)cc1 | 12.5 |
| O=C(NCC(c1cccs1)N1CCOCC1)C1CCN(S(=O)(=O)c2c(Cl)cccc2Cl)CC1 (stereo not drawn) | -27.3 |
| CN(C)S(=O)(=O)c1cccc(NC(=O)COC(=O)c2cc(=O)c3ccccc3o2)c1 | 11.3 |
| Cc1noc(C)c1COc1ccc(C(=O)OCC(=O)NC23CC4CC(CC(C4)C2)C3)cc1 | 19.4 |
| O=C(O)CCC(=O)Nc1ccc2c(c1)Cc1cc(NC(=O)CCC(=O)O)ccc1-2 | 12.5 |
| O=C(NC12CC3CC(CC(C3)C1)C2)c1c(Cl)cccc1Cl | -14 |
| COc1cc(NC(=O)c2ccco2)c(OC)cc1NC(=O)CSc1ncc(-c2ccc(F)cc2)[nH]1 | 2.14 |
| Cc1nn(C)cc1/C=N/NC(=O)c1ccc2c(c1)OCO2 | -1.33 |
| Cn1c(O)c(/C=C/C=Nc2ccccc2)c(=O)n(C)c1=O | 14.1 |
| O=C(NCCN1CCN(Cc2ccccc2)CC1)C1CC(=O)N(C2CCCC2)C1 (stereo not drawn) | 10 |
| Cc1ccc(-c2nnc(SCC(=O)N/N=C/c3ccccc3C(=O)O)n2C2CCCCC2)cc1 | 11.1 |
| CCCNC(=O)c1onc(CSc2ccc(F)cc2)c1C(=O)NCCC | 5.35 |
| O=C(NCCc1c[nH]c2ccccc12)Nc1cccc2ccccc12 | -2.66 |
| Cc1ccccc1CSCc1ccc(C(=O)NCCCN2CCOCC2)o1 | -47.6 |
| CC(=O)c1sccc1NC(=O)CC(C)(C)CC(=O)O | 4.84 |
| CC(=O)Nc1cc(C(=O)N(C)Cc2ccco2)ccc1Sc1ccc(Cl)cc1 | -66.7 |
| CC(=O)OC1(c2ccc(C)cc2)CN2CCC1c1ccccc12.Cl (stereo not drawn) | -4.93 |
| CCN(CC)CC(=O)Nc1ccc([N+](=O)[O-])cc1 | -47.5 |
| O=C(Nc1ccon1)c1nc[nH]c1C(=O)N1CCc2ccccc2C1 | 22.4 |
| COCCn1c(=O)[nH]c2cc(C(=O)N3CCN(c4ccccc4)CC3)ccc2c1=O | 14.5 |
| COc1ccc(C(O)P(=O)(OC(C)C)OC(C)C)cc1OC (stereo not drawn) | -0.491 |
| Cc1cccc(NS(=O)(=O)c2ccc(C(=O)NCC(c3ccco3)N(C)C)cc2)c1C (stereo not drawn) | -20.3 |
| O=C(CN(c1ccccc1)S(=O)(=O)c1ccc(F)cc1)N1CCCCCC1 | -32.3 |
